Source: PubChem BioAssay AID493208 (National Center for Advancing Translational Sciences (NCATS), 2011)
Hit rate of the full screen: of about 44,000 compounds, about 340 (0.77%) were called active. Inconclusive results (about 5%) are left out. The call rests on the fitted dose curve; in most records, active means well fitted inhibition curve with a large enough effect; inconclusive means small, poorly fitted or top-dose-only effect; inactive means flat fitted curve, though single readings scatter. This is one part of the list.

test: Acumen qHTS Assay for Inhibitors of the mTORC1 Signaling Pathway in MEF (Tsc2-/-, p53-/-) Cells: Sytravon; details: phospho-rpS6 immunofluorescence/PI, 24 h; series mostly up to 38.3 µM; activity change, negative = inhibition: at the top concentration;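 further: plate controls were DMSO for no effect and rapamycin for full effect; nearly all actives have a fitted effect of over 50% in size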
Summary of the method: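 Plate MEFs (Tsc2-/-, p53-/-, empty vector) in DMEM/10% FBS; after 24 h add compound, incubate 24 h at 37 degree Celsius; fix in PFA/TX-100, block, stain phospho-rpS6 and 10 uM PI; scan at 488 nm; report % positive cells.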

Activity change, negative = inhibition, inactive:
Cc1ccnc2nc(NC(=O)c3ccccc3Cl)nn12 -1.35%
Cc1cccc(N(CC(=O)N(C)Cc2ccccc2)S(=O)(=O)c2ccccc2)c1C -3.79%
CCC(=O)N1CCc2cc(Br)cc(S(=O)(=O)N3CCCC(C(=O)Nc4ccc(OC)cc4OC)C3)c21 (configuration not stated) -0.804%
CCc1ccc(S(=O)(=O)c2nnn3c2nc(NC(C)C)c2cc(Cl)ccc23)cc1 -4.43%
CC12CN3CC(c4ccccc4)(CN(C1)C3c1ccc(Cl)cc1)C2=O (configuration not stated) -3.3%
CC(=O)c1cc(-c2ccccc2)n(CCC(=O)NC2CCCCC2)c1C -0.691%
COc1ccccc1CNC(=O)c1ccc(CS(=O)c2ccccc2Cl)o1 (configuration not stated) -3.37%
COc1ccc(NC(=O)C(=O)NCc2ccco2)c(OC)c1 7.08%
COc1ccc(N2CCN(c3oc(/C=C/c4ccccc4OC)nc3C#N)CC2)cc1 2.66%
CC(C)Oc1ccc(CNC(=O)c2cccc(NC(=O)c3nsc4ccccc34)c2)cc1 -8.76%
Cc1cc(C)cc(NC(=O)N2CCC(N3CCN(Cc4ccccc4)C(=O)C3=O)CC2)c1 -3.16%
O=C(Nc1ccc(C(=O)OCc2cc(=O)n3ccsc3n2)cc1)c1cccc(F)c1 28.5%
COc1ccc(Nc2c3c(nc4ccc(NC(=O)c5cc(Cl)ccc5OC)cc24)CCCC3)cc1OC 0.308%
CCOc1ccc(CC(=O)Nc2c(C(=O)c3ccc(F)cc3)oc3ccc(Cl)cc23)cc1OCC 8.52%
COc1ccc(OC)c(CNC(=O)C2CCN(S(=O)(=O)c3ccc4[nH]c(=O)oc4c3)CC2)c1 3.92%
Cc1ccc(CNC(=O)c2c[nH]n3c(=O)c(Cc4ccc(F)cc4Cl)c(C)nc23)cc1 -20.5%
Cc1nnc(N2CCN(c3cccc(C(F)(F)F)c3)CC2)c2c1nnn2Cc1ccccc1 2.76%
Cn1c(C(=O)N2CCC(C(=O)N3CCN(c4ccccc4)CC3)CC2)cc2sccc21 -4.32%
COc1ccc(N2Cc3cccc(C(=O)Nc4cccc(F)c4)c3C2=O)cc1 -13.2%
Cc1noc2ncnc(NCc3ccc(Cl)cc3)c12 -10.6%
Cc1cc(NC(=O)C2CCCN(S(=O)(=O)c3cn(C)cn3)C2)ccc1Br (configuration not stated) 0%
Cc1ccc(-c2cc(NC(=O)C(C)Oc3ccccc3F)on2)cc1 (configuration not stated) -16.2%
CN(C)c1ccc(C(=O)Nc2ccc(-c3nc4ccccc4o3)cc2)cc1 4.15%
CCOC(=O)c1ccc(N2C(=O)c3n[nH]c(-c4cccs4)c3C2c2ccc(OC)cc2OC)cc1 (configuration not stated) -8.08%
Cc1ccc(NC(=O)c2ccc(N(Cc3ccccc3)S(C)(=O)=O)cc2)cc1 0.186%
CC(C)c1ccc(C2=NC(c3ccncc3)=Nc3ccc(F)cc3N2)cc1 -15.4%
O=C(Nc1nc2c(s1)CCCC2)c1ccccc1F -14.6%
CCOC(=O)c1c(S(=O)(=O)N2CCN(c3cccc(C(F)(F)F)c3)CC2)c(C)n(C)c1C 0.561%
CCCn1cc(S(=O)(=O)c2ccc(CC)cc2)c(=O)c2cc(F)c(N3CCN(C)CC3)cc21 -7.88%
CCOc1ccc(Cn2c(CNS(=O)(=O)c3ccc(CC)cc3)nc3cccnc32)cc1 0.307%
COc1ccc(OC)c(CCNC(=O)c2nn(C)c3c2CSc2ccccc2-3)c1 2.34%
CNC(=O)c1ccc2nc(Cc3ccccc3)oc2c1 -7.59%
CCC1CCc2c(sc(NC(=O)C3c4ccccc4Oc4ccccc43)c2C(=O)OC)C1 (configuration not stated) -16.3%
CC(C)c1ccc2oc(-c3ccc(Cl)c(NC(=O)Cc4ccccc4)c3)nc2c1 -26%
CCOC(=O)N1CCC(NC(=O)c2ccc3c(c2)N(Cc2ccc(Cl)cc2)C(=O)c2ccccc2S3(=O)=O)CC1 5.04%
Cc1ccc(C(=O)c2oc3ccccc3c2NC(=O)C(C)Oc2ccccc2Cl)cc1 (configuration not stated) -1.02%
Cc1cc(Br)ccc1NC(=O)CCNS(=O)(=O)c1cccc2nonc12 -13.1%
COc1ccc(NC(=O)c2c(NCc3cccs3)sc3c2CCCCC3)c(OC)c1 -9.98%
O=C(Nc1ccc(Br)cc1F)c1cc2nc(-c3ccco3)cc(C(F)(F)Cl)n2n1 1.2%
CCOc1ccc(OCC)c(Nc2nc3ccc(C(=O)c4ccccc4)cc3n3cnnc23)c1 -5.78%
O=S(=O)(c1ccc(OC(F)(F)F)cc1)N1CCC(c2nc3ccccc3s2)CC1 2.61%
COc1ccc2c(c1)CC(C(=O)Nc1ccc(OC)cc1OC)CO2 (configuration not stated) -18.6%
O=C(Cn1cc(SCc2ccccc2F)c2ccccc21)N1CCCC1 -3.69%
CCC(=O)Nc1ccccc1-c1nc2ccccc2n(CC(=O)Nc2ccc(C)c(C)c2)c1=O -4.89%
CCc1ccc(NC(=O)C2CCN(S(=O)(=O)c3c(C)noc3C)CC2)cc1 1.76%
Cn1c(=O)c2cc(C(=O)Nc3cccc(C#N)c3)sc2c2ccccc21 1.22%
COc1ccc(C2=NN(CC(=O)NCCc3ccccc3)C(=O)CC2)cc1 -4.01%
COC(=O)c1ccc(NC(=O)NC(C)c2c(-n3cccc3)sc(C)c2C)cc1 (configuration not stated) -17.2%
O=C(NC1CCCC1)c1ccc(CSc2nc3cccnc3n2Cc2ccccc2)cc1 -1.35%
COc1ccc(CCNC(=O)CSCc2nc(-c3cccc(C)c3)oc2C)cc1OC -13.6%
O=C(NCc1ccccc1)c1ccc2c(c1)N(Cc1ccc(F)cc1)CCS2 -0.948%
COc1ccc(Cl)cc1NC(=O)c1sc2nc(-c3ccc(OC)c(OC)c3)ccc2c1N -2.88%
COC(=O)c1sc2cccc(F)c2c1S(=O)(=O)Nc1cc(C)c(Cl)cc1OC 0%
O=C(COc1ccc(Cl)cc1)Nc1ccc(-c2nc3cc(Cl)ccc3o2)c(O)c1 3.89%
CCCNC(=O)C1CCC(Cn2c(=O)c3sccc3n(CC(=O)N3CCCC3)c2=O)CC1 (configuration not stated) 0.474%
CCc1cccc(C)c1NC(=O)CN1C(=O)c2ccccc2Sc2ncccc21 -1.89%
COc1ccc(CNC(=O)c2cc3oc4ccccc4c3n2C)cc1OC -4.14%
CCCNC(=O)CN1C(=O)c2c(c3ccccc3n2C)C1c1ccc(OC)cc1 (configuration not stated) -2.61%
CCc1ccc(S(=O)(=O)c2nnn3c2nc(N2CCC(C(N)=O)CC2)c2cc(Cl)ccc23)cc1 1.5%
Cc1c(C(=O)Nc2cccc(C#N)c2)sc2nc3n(c(=O)c12)CCCCC3 7.42%
CC1CN(C(=O)N2CCC(C(=O)NCc3ccco3)CC2)c2ccccc2O1 (configuration not stated) 4.95%
CC1CCN(c2nc3ccccc3nc2C(F)(F)F)CC1 -3.66%
Cc1ccc2ncc(C(=O)c3ccc(C)c(C)c3)c(S(=O)(=O)c3ccccc3)c2c1 -5.8%
CCOc1cccc(C2c3c(oc4ccc(F)cc4c3=O)C(=O)N2c2cc(C)ccn2)c1 (configuration not stated) -1.1%
O=C(Nc1nc2ccccc2n1CCOc1ccccc1Cl)c1ccccc1 -3.56%
Cc1cccc(CN2C(=O)c3ccccc3Sc3ccc(C(=O)NCCCN4CCOCC4)cc32)c1 9.73%
CCN(CC)S(=O)(=O)c1nnc(NC(=O)c2ccc(C)cc2)s1 -9.16%
CC(=O)N1CCc2cc(S(=O)(=O)NC(Cc3ccccc3)C(=O)Nc3cc(C)cc(C)c3)ccc21 (configuration not stated) -0.107%
COc1ccccc1N1CCN(Cc2nc(-c3cc(OC)c(OC)c(OC)c3)no2)CC1 -13.1%
CC1CCCCN1CCCNC(=O)Cn1ncc2c3ccccc3n(Cc3ccccc3)c2c1=O (configuration not stated) -5.97%
Cc1ccc(Cl)cc1N1CCN(C(=O)CCc2nnc3n(C)c(=O)c4ccccc4n23)CC1 1.09%
Cc1ccc(NC(=O)CSc2nc3n[nH]c(C)c3c(=N)n2-c2ccccc2C)cc1C -4.48%
CCN(Cc1ccccc1)C(=O)c1cn(-c2cccc(OC)c2)c(=O)c2ccccc12 -23.5%
COc1ccc(CCN2C(=O)CN(C3CCCCCC3)C(=O)C2c2ccc(Cl)cc2)cc1OC (configuration not stated) 3.44%
O=C(Cn1ncc2c3ccccc3n(Cc3ccccc3)c2c1=O)NCCCN1CCCCC1 -0.0653%
COc1ccc(-c2cc(C(=O)Oc3ccc(C#N)cc3)no2)cc1 -0.875%
COc1ccc(CNC(=O)C(CC(C)C)NS(=O)(=O)c2ccc3c(c2)CCN3C(C)=O)cc1 (configuration not stated) 0.39%
O=S1(=O)c2ccccc2N(Cc2ccc(F)cc2)c2ccccc21 -0.464%
O=C(NCCOCCn1c(=O)oc2ccccc21)Nc1ccc(F)cc1F -13.3%
COc1ccc(Nc2nnc(-n3nc(C)cc3C)c3ccccc23)cc1 -15.3%
COc1ccc(CNC(=O)c2cc3c(=O)n(Cc4ccc(OC)cc4)ccc3nc2C)cc1 0.0892%
COc1cc(Br)cc2cc(S(=O)(=O)c3ccccc3)c(=O)oc12 -2.1%
Cc1cccc(NC(=O)CSc2nc3ccc(NC(=O)CCc4ccccc4)cc3s2)c1 -6.74%
Cc1ccc(-c2nc(CS(=O)(=O)CC(=O)N3CCN(c4ccccc4)CC3)c(C)o2)cc1 -0.809%
CCCSCCCNC(=O)c1sc2nc(C)cc(C)c2c1-n1cccc1 -0.0028%
COc1cccc(NCc2nnc3n2CCCCC3)c1 -11.7%
Cc1ccc(-c2noc(-c3cccnc3N(C)Cc3ccc(Cl)cc3)n2)cc1 4.67%
CCOc1ccc(NC(=O)CN(c2ccc(C)cc2)S(=O)(=O)c2cccs2)cc1 -9.24%
CCc1cccc(C)c1Nc1c(-c2ccc(N(C)C)cc2)nc2cnccn12 -20.7%
COc1cccc(CNC(=O)c2ccc3nc(CCc4ccccc4)oc3c2)c1OC 1.33%
COc1ccc(-c2nc3ccccc3s2)cc1NC(=O)c1cccc(F)c1 -9.74%
Cc1ccc(-n2nc(C)c3c(C)c(CCC(=O)NCc4ccc(Cl)cc4)c(C)nc32)cc1 -1.29%
CCOc1ccc(CNCCSc2nnnn2C)cc1 5.4%
COC(=O)c1ccccc1NC(=O)Cn1c(=O)n(-c2ccc(C)cc2)c(=O)c2ccccc21 -22.9%
COc1cc(Nc2nc3c(S(=O)(=O)c4cccc(Cl)c4)nnn3c3ccsc23)cc(OC)c1 -10.1%
CCOc1ccc(NC(=O)Cn2nc(CC)n3c(cc4sccc43)c2=O)cc1 0.435%
Cc1ccc2c(c1)c1c(c(=O)n(-c3cccc(Cl)c3)c(=O)n1CC(N)=O)n2C -1.96%
